In article PMC9275676 one finds binding data, which are given here for 6 molecules.

Protein sequences, listed by entry. Tags and fused reporters are not part of them.
UniProt O15550: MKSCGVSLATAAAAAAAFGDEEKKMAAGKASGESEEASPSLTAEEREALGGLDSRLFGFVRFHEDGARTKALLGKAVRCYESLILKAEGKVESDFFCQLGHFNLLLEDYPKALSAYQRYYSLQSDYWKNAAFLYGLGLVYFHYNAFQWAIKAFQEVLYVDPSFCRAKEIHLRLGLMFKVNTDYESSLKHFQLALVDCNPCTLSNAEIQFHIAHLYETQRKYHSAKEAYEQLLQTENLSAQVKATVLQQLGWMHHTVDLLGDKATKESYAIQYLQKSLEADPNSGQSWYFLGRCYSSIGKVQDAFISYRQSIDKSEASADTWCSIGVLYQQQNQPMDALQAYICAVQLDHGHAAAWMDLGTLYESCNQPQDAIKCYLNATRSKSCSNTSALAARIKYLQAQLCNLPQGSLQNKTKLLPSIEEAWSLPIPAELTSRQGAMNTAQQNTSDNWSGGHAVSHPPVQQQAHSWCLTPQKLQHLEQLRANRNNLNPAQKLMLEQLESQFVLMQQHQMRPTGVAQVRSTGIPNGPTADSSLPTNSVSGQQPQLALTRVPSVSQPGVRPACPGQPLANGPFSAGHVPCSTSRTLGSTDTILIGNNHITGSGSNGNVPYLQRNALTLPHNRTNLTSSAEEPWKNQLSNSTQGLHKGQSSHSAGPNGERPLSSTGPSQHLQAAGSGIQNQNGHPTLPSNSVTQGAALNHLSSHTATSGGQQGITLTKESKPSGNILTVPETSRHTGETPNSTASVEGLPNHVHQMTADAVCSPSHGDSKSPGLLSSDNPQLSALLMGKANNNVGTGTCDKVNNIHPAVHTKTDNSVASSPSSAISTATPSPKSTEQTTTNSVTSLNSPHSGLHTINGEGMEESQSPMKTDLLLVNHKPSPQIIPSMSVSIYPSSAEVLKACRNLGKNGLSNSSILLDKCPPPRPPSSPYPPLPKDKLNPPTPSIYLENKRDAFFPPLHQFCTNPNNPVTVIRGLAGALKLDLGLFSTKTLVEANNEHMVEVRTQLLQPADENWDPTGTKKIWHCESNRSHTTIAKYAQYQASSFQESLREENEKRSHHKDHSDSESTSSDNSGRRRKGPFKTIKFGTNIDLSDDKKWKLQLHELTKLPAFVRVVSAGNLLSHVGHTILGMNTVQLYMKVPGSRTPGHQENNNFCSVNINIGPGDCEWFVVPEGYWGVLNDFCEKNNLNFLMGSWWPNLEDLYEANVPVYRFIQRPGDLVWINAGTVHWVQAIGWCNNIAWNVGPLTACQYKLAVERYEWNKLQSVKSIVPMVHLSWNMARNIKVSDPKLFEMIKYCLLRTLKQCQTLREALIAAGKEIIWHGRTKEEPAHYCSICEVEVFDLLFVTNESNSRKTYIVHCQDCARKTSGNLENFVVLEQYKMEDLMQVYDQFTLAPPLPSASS
UniProt Q92830: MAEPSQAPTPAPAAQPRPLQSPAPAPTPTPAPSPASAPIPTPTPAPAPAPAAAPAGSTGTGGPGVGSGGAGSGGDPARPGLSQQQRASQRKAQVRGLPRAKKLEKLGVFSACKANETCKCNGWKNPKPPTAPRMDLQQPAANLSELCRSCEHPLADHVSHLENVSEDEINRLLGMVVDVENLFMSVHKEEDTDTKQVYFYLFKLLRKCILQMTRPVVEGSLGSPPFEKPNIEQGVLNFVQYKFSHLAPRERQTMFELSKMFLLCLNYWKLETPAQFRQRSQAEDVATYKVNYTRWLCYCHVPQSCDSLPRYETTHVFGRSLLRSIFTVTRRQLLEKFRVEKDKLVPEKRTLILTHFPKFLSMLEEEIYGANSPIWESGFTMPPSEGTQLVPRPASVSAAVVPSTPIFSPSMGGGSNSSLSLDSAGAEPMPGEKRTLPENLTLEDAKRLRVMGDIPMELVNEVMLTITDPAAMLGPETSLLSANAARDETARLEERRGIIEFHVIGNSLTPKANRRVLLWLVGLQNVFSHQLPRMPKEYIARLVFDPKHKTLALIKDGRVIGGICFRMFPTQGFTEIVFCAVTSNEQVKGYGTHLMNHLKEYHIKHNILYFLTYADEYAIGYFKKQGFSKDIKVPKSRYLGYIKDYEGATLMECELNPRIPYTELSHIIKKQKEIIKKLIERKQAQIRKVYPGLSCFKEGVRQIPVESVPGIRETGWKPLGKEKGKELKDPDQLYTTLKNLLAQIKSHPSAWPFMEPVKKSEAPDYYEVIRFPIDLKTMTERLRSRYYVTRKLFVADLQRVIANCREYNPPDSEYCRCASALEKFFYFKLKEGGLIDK
UniProt O09106: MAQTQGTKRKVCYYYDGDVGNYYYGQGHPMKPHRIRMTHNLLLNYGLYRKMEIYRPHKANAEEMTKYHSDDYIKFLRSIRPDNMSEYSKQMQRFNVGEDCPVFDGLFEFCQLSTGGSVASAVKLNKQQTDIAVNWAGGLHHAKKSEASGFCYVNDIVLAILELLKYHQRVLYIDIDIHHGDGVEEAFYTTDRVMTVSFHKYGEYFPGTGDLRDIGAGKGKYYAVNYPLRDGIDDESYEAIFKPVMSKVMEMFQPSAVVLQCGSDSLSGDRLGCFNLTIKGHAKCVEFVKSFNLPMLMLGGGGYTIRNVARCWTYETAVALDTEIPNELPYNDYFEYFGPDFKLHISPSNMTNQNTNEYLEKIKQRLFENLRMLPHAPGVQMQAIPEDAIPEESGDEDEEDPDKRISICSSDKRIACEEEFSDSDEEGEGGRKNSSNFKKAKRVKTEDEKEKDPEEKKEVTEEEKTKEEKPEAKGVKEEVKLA
UniProt Q92769: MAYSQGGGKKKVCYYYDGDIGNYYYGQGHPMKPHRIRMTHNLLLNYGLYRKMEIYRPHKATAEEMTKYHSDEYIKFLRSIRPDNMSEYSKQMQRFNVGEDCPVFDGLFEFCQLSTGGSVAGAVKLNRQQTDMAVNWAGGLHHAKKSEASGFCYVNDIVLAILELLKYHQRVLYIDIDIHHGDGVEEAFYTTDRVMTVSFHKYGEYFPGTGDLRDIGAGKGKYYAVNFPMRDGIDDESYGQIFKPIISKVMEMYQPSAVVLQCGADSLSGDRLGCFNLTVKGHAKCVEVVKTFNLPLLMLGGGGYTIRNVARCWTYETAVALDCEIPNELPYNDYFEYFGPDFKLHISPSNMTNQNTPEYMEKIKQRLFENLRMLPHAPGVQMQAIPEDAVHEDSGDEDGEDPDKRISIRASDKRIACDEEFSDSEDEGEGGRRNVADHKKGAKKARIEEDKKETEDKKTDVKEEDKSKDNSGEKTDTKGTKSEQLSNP
UniProt Q13547: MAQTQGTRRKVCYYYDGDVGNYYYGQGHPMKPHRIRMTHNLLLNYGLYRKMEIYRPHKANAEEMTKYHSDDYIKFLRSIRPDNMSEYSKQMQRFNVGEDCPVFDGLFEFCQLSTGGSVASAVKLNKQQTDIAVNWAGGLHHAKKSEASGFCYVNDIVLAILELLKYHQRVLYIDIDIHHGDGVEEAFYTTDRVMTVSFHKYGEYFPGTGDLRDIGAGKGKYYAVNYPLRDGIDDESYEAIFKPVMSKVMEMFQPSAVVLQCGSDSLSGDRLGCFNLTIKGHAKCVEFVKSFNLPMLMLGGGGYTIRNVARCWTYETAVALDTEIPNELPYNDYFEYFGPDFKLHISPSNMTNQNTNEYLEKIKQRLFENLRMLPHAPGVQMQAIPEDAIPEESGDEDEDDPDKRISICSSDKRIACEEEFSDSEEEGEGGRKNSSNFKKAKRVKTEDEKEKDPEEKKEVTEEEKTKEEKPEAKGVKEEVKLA
UniProt Q15291: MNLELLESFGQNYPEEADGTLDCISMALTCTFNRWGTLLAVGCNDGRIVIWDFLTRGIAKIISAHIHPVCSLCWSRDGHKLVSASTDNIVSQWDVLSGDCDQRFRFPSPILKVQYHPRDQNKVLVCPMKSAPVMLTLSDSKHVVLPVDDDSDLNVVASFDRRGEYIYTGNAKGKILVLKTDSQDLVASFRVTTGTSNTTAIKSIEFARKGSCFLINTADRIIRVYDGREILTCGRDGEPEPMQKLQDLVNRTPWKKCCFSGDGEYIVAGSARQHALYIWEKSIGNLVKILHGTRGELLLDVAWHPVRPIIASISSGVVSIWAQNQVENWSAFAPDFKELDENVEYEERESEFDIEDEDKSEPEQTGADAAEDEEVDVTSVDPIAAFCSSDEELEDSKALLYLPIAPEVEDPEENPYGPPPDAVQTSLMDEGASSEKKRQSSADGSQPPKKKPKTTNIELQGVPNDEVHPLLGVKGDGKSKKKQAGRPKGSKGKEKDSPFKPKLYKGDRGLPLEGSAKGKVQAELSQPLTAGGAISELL

The target of assay [1] is FLAG-UTX (tetracycline-inducible HEK293 line) (UniProt O15550). Briefly: co-IP; FLAG IP (FLAG-UTX, FLAG-ELMSAN1 or FLAG-DNTTIP1) from nuclear extracts of HEK293 cells, Western blot; FLAG-tag expressing cells as IP control. Background: Immunoblotting shows a protein as a band on a membrane.
Assay [2] addresses T1, DNTTIP1 (endogenous, mouse embryonic stem cells) (mouse (endogenous in mESCs)) (UniProt Q99LB0).
T1 sequence: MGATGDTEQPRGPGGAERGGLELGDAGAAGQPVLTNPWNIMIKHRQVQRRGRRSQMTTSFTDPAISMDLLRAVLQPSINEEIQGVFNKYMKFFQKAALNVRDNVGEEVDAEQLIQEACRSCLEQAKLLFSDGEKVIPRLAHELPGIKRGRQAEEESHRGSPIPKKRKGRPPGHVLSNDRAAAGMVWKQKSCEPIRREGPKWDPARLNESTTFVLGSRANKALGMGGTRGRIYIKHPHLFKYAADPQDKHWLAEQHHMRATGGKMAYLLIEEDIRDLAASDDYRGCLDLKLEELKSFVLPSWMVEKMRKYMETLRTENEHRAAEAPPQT
Briefly: co-IP; IP of endogenous UTX or DNTTIP1 with antibodies (5 ug per IP) from nuclear extracts of WT and Mll3/4 DKO mESCs, Western blot; IgG as IP control.

The next assay has as its target T2, FLAG-DNTTIP1 (UniProt Q9H147).
T2 sequence: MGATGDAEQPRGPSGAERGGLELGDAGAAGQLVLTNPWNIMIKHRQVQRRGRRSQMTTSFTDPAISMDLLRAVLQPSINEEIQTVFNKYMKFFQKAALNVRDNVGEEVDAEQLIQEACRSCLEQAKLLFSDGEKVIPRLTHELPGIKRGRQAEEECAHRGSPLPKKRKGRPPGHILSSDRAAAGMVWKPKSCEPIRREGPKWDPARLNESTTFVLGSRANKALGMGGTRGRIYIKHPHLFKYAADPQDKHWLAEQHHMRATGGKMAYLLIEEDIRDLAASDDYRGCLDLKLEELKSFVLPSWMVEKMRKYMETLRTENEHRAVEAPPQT
Put plainly: co-IP; FLAG IP (FLAG-UTX, FLAG-ELMSAN1 or FLAG-DNTTIP1) from nuclear extracts of HEK293 cells, Western blot; FLAG-tag expressing cells as IP control.

A further assay deals with T3, FLAG-ELMSAN1 (UniProt Q6PJG2).
T3 sequence: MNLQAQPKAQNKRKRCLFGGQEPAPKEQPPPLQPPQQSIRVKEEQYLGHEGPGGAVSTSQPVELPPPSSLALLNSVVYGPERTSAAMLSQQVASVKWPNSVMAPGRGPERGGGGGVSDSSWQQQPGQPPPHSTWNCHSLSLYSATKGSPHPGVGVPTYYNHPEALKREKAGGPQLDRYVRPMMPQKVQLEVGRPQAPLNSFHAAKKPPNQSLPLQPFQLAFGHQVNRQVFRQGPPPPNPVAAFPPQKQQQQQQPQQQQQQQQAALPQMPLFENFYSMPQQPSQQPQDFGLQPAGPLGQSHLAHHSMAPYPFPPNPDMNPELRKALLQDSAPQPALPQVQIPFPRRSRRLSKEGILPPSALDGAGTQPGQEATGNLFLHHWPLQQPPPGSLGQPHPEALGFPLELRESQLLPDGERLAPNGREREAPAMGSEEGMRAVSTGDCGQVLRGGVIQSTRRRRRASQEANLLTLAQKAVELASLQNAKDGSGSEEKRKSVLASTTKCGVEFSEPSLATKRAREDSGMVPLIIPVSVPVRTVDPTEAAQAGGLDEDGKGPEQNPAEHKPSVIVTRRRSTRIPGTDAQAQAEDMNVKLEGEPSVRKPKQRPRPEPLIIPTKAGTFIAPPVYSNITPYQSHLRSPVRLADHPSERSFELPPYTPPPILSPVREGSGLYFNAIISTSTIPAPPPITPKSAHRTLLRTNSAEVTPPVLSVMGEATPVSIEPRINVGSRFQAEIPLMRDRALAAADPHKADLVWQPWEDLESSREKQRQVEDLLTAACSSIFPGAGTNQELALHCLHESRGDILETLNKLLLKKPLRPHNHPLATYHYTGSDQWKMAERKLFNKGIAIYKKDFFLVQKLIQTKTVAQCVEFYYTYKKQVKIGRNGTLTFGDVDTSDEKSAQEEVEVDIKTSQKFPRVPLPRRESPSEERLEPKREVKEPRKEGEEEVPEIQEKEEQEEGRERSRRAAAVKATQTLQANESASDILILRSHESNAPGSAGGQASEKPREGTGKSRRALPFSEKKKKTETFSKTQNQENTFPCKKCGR
The assay is described as above.

Assay [3] concerns the target FLAG-UTX (tetracycline-inducible HEK293 line) (UniProt O15550). Put plainly: co-sedimentation; glycerol gradient fractionation of FLAG-affinity purified UTX from nuclear extracts of HEK293 cells; 34 fractions analysed by Western blot.
The target of assay [4] is FLAG-UTX (transiently transfected into HCT116 cells) (UniProt O15550). Put plainly: co-IP; FLAG IP from nuclear extracts of MLL3+/+ MLL4+/+, MLL3-/- MLL4+/+ and MLL3-/- MLL4-/- HCT116 cells transiently transfected with FLAG-UTX, Western blot; FLAG-tag plasmid as IP control.
Assay [5] has as its target FLAG-UTX (tetracycline-inducible HEK293 line) (UniProt O15550). Put plainly: co-IP; FLAG IP (FLAG-UTX, FLAG-ELMSAN1 or FLAG-DNTTIP1) from nuclear extracts of HEK293 cells, Western blot; FLAG-tag expressing cells as IP control. The source holds these as a separate data set.

Results are given in words; binding and its absence hold for the method and conditions named. In cells and extracts the contact can be indirect. Some results given as binding are weak or reduced against the parent protein; the word gives no strength. For some of these results: Where a sequence is shown, tags or fusion partners need not be part of it.

Consider “KAT2A (endogenous, HEK293) (from UniProt Q92830 1-837) (enzyme)”, for which, in assay [1], the binding result is on record as “no binding”. “HDAC1 (endogenous, mouse embryonic stem cells) (from UniProt O09106 1-482) (enzyme)”: in assay [2], the binding entry is given as “binds”. In the case of “HDAC2 (endogenous, HEK293) (from UniProt Q92769 1-488) (enzyme)”, the binding result with FLAG-DNTTIP1 and with FLAG-ELMSAN1 was “binds” in each case. With “HDAC1 (endogenous, human cells) (from UniProt Q13547 1-482) (enzyme)”, the binding result in the assay with FLAG-ELMSAN1 was “binds”. In the case of “RBBP5 (endogenous, HEK293) (from UniProt Q15291 1-538)”, the binding entry in assay [3] and in assay [1] was “binds” in each case.

B1: ELMSAN1 (endogenous, human cells) (protein, UniProt Q6PJG2 1-1045)
chain: MNLQAQPKAQNKRKRCLFGGQEPAPKEQPPPLQPPQQSIRVKEEQYLGHEGPGGAVSTSQPVELPPPSSLALLNSVVYGPERTSAAMLSQQVASVKWPNSVMAPGRGPERGGGGGVSDSSWQQQPGQPPPHSTWNCHSLSLYSATKGSPHPGVGVPTYYNHPEALKREKAGGPQLDRYVRPMMPQKVQLEVGRPQAPLNSFHAAKKPPNQSLPLQPFQLAFGHQVNRQVFRQGPPPPNPVAAFPPQKQQQQQQPQQQQQQQQAALPQMPLFENFYSMPQQPSQQPQDFGLQPAGPLGQSHLAHHSMAPYPFPPNPDMNPELRKALLQDSAPQPALPQVQIPFPRRSRRLSKEGILPPSALDGAGTQPGQEATGNLFLHHWPLQQPPPGSLGQPHPEALGFPLELRESQLLPDGERLAPNGREREAPAMGSEEGMRAVSTGDCGQVLRGGVIQSTRRRRRASQEANLLTLAQKAVELASLQNAKDGSGSEEKRKSVLASTTKCGVEFSEPSLATKRAREDSGMVPLIIPVSVPVRTVDPTEAAQAGGLDEDGKGPEQNPAEHKPSVIVTRRRSTRIPGTDAQAQAEDMNVKLEGEPSVRKPKQRPRPEPLIIPTKAGTFIAPPVYSNITPYQSHLRSPVRLADHPSERSFELPPYTPPPILSPVREGSGLYFNAIISTSTIPAPPPITPKSAHRTLLRTNSAEVTPPVLSVMGEATPVSIEPRINVGSRFQAEIPLMRDRALAAADPHKADLVWQPWEDLESSREKQRQVEDLLTAACSSIFPGAGTNQELALHCLHESRGDILETLNKLLLKKPLRPHNHPLATYHYTGSDQWKMAERKLFNKGIAIYKKDFFLVQKLIQTKTVAQCVEFYYTYKKQVKIGRNGTLTFGDVDTSDEKSAQEEVEVDIKTSQKFPRVPLPRRESPSEERLEPKREVKEPRKEGEEEVPEIQEKEEQEEGRERSRRAAAVKATQTLQANESASDILILRSHESNAPGSAGGQASEKPREGTGKSRRALPFSEKKKKTETFSKTQNQENTFPCKKCGR
B1: the binding entry in assay [3], in assay [4] and in assay [5] was “binds” throughout.
